From PubChem BioAssay AID2100 (National Center for Advancing Translational Sciences (NCATS), 2009)
Screen size: about 300,000 compounds; about 1,200 (0.4%) were called active. Inconclusive results, whose numbers are uncertain, are shown with a selection of clear calls. Calls follow the shape of the dose curve; as a rule, active = well fitted inhibition curve with a large enough effect; inconclusive = small, poorly fitted or top-dose-only effect, or another doubt; inactive = no such curve, though single readings can be large or run the other way. Where the call is inconclusive, the potency comes from a doubtful curve fit.
Potency is read from the fitted curve at half-maximal effect.

These compounds were tested against Lysosomal alpha-glucosidase (Homo sapiens) (UniProt P10253) (assay: qHTS Assay for Inhibitors and Activators of Human alpha-Glucosidase Cleavage of Glycogen). Conditions: recombinant GAA, glycogen substrate, Amplex Red glucose oxidase fluorescence; series mostly up to 76.4 µM.
In short: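 Natural-substrate format: glycogen cleavage by 4 nM human enzyme, glucose read by Amplex Red coupling (Ex 573, Em 610 nm). Normalized to enzyme and no-enzyme controls.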
In the case of `Cc1cccc(NC(=S)NCc2ccc3[nH]c4c(c3c2)CCCC4)c1`, the Potency was inconclusive: 28.2 µM [inhibitor, single point].
For `Cc1cc(Cl)ccc1OCC(=O)NCCOC(=O)Nc1sc(=S)n(C)c1C`, the Potency was inconclusive: 39.8 µM [inhibitor, partial curve].
`O=C(Cn1cc(SCc2c(F)cccc2Cl)c2ccccc21)N1CCCC1` was tested, and the Potency was “inactive”.
With `CN1C=CC=C/C1=C1\SC(=S)N(CC(=O)O)C1=O` the Potency was inconclusive: 28.2 µM [inhibitor, partial curve].
With `NNC(=O)c1cc(O)c(O)c(O)c1` the Potency was inconclusive: 3.14 µM [inhibitor, full curve].
For `Nc1c(C(=O)NCCN2CCOCC2)c2nc3ccccc3nc2n1-c1ccccc1`, the Potency was “inactive”.
For `O=C(Cc1ccccc1)NC(c1ccco1)c1c(O)ccc2ccccc12` (centres undefined), the Potency was inconclusive: 31.4 µM [inhibitor, partial curve].
With `C=C(C)CNC(=S)NNC(=O)c1ccco1` the Potency was inconclusive: 15.7 µM [inhibitor, partial curve].
With `NC1=NCC(O)=C1c1nc2ccccc2[nH]1` the Potency was inconclusive: 25.1 µM [inhibitor, partial curve].
In the case of `Cc1ccc[n+](-c2nc([O-])sc2/C=N/Nc2ccc([N+](=O)[O-])cc2)c1`, the Potency was inconclusive: 11.2 µM [inhibitor, single point].
For `C[N+](C)(C)C(Cc1c[nH]c2ccccc12)C(=O)[O-]` (centres undefined), the Potency was inconclusive: 28.2 µM [inhibitor, partial curve].
`CC/C(=N\NC(=S)Nc1cc(C)ccc1C)c1ccc(OC(F)F)cc1` was tested, and the Potency was inconclusive: 28.2 µM [inhibitor, partial curve].
In the case of `Cc1cc(S(=O)(=O)Nc2ccc(O)c(Sc3nc4ccccc4s3)c2)ccc1Cl`, the Potency was inconclusive: 28.2 µM [inhibitor, partial curve].
In the case of `CCN(CC)S(=O)(=O)c1ccc2oc(Nc3ccccc3)nc2c1`, the Potency was inconclusive: 50.1 µM [inhibitor, single point].
For `O=C1CCCC(=NCc2ccco2)C1`, the Potency was “inactive”.
`CCn1c(CN2CCCCC2)nc2cc(NC(=O)c3cccc([N+](=O)[O-])c3)ccc21` was tested, and the Potency was “inactive”.
In the case of `Cc1ccc2nc(C)c3c(c2c1)OC(C(C)(Cl)Br)C3` (centres undefined), the Potency was “inactive”.
In the case of `O=C(Nc1ccccc1F)c1oc2ccccc2c1NC(=O)c1c(F)cccc1F`, the Potency was “inactive”.
`C/C(CCC(C)C)=N\Nc1ccc(S(N)(=O)=O)cc1[N+](=O)[O-]` was tested, and the Potency was inconclusive: 31.6 µM [inhibitor, single point].
With `Cc1cc(O)c(/C=N/Nc2ccc(Cl)cc2)c(=O)o1` the Potency was inconclusive: 24.9 µM [inhibitor, partial curve].
`COc1ccccc1N1CCN(S(=O)(=O)c2c(C)sc3ncn(CC(=O)Nc4ccc(C)cc4Br)c(=O)c23)CC1` was tested, and the Potency was “inactive”.
In the case of `O=C(Nc1ccc2nc(SCC(=O)N3CCCc4ccccc43)sc2c1)c1ccc(Cl)cc1`, the Potency was “inactive”.
In the case of `COc1cc(/C=C2/SC(=S)N(c3c(C)n(C)n(-c4ccccc4)c3=O)C2=O)ccc1O`, the Potency was inconclusive: 24.9 µM [inhibitor, partial curve].
`CNc1oc(-c2cccs2)nc1C#N` was tested, and the Potency was inconclusive: 14.1 µM [inhibitor, partial curve].
For `CC(=O)c1ccc(NC2=C(N3CCOCC3)C(=O)c3ccccc3C2=O)cc1`, the Potency was inconclusive: 39.5 µM [inhibitor, single point].
`Cn1c(N)c(S(=O)(=O)c2ccc(Br)cc2)c2nc3ccccc3nc21` was tested, and the Potency was “inactive”.
For `CN(C)c1ccc(NC(=S)N2CCN(c3ncc(C(F)(F)F)cc3Cl)CC2)cc1`, the Potency was inconclusive: 14 µM [inhibitor, partial curve].
In the case of `O=C(O)c1cc(N/N=C/c2ccc(OCc3ccccc3)cc2)ccc1Cl`, the Potency was inconclusive: 31.6 µM [inhibitor, single point].
For `CCOc1cc(/C=C2/NC(=O)N(Cc3ccccc3F)C2=O)ccc1O`, the Potency was active: 5.62 µM.
For `NC(=O)c1nsc(C(=O)N(c2ccc3c(c2)OCO3)C(C(=O)NCC2CCCO2)c2ccc(F)cc2)c1N` (centres undefined), the Potency was inconclusive: 28.2 µM [inhibitor, single point].
For `NC(=O)CSc1nnc(Cc2csc(Nc3ccc(F)cc3)n2)n1Cc1ccccc1`, the Potency was inconclusive: 28 µM [inhibitor, partial curve].
With `Nc1cc(C2CCCC2)nn1-c1ccccc1` the Potency was “inactive”.
For `COc1ccc2nc(Nc3sc4c(c3C(N)=O)CCCC4)sc2c1`, the Potency was inconclusive: 39.8 µM [inhibitor, partial curve].
`CCN(CC)P(=O)(/C(Cl)=C\Nc1c(C)n(C)n(-c2ccccc2)c1=O)N(CC)CC` was tested, and the Potency was inconclusive: 24.9 µM [inhibitor, partial curve].
`COCCCN=C(c1ccco1)n1c(=S)nc(-c2ccco2)n(CCCOC)c1=S` was tested, and the Potency was “inactive”.
In the case of `CNc1nn(-c2cccc(Cl)c2)nc1N`, the Potency was inconclusive: 35.5 µM [inhibitor, single point].
`CCOc1cc(-c2noc(CCC(=O)Nc3cccnc3)n2)ccc1OC` was tested, and the Potency was “inactive”.
For `O=C1CS/C(=C\[N+](=O)[O-])N1c1ccccc1`, the Potency was inconclusive: 39.8 µM [inhibitor, single point].
With `CCC1(O)CC(C(=O)OC)=NN1C(=O)c1ccccc1` (centres undefined) the Potency was inconclusive: 4.97 µM [inhibitor, single point].
`COc1ccc(NN=Nc2nc3c([nH]2)c(=O)n(C)c(=O)n3C)cc1` was tested, and the Potency was inconclusive: 50.1 µM [inhibitor, single point].
With `CC1=NNC(=O)C1CCC(=O)N/N=C(\C)c1ccccc1` (centres undefined) the Potency was inconclusive: 31.6 µM [inhibitor, partial curve].
For `CCOc1ccc(CNc2ncc(-c3ccccc3)n2C)cc1`, the Potency was “inactive”.
For `CCOC(=O)C1CCN(CC(=O)c2ccc(O)c(C)c2O)CC1`, the Potency was inconclusive: 50.1 µM [activator, partial curve].
In the case of `Cc1noc(C)c1C(=O)NNc1cc(Cl)ccc1Cl`, the Potency was inconclusive: 8.91 µM [inhibitor, partial curve].
`O=C(Nc1ccc(Cl)c(Cl)c1)Nc1ccccc1C(=O)O` was tested, and the Potency was “inactive”.
With `Cc1ccc(NC(=S)NNc2ncc(C(F)(F)F)cc2Cl)cc1` the Potency was inconclusive: 28 µM [inhibitor, partial curve].
In the case of `C/C(CC(=O)NCc1ccccc1)=N\NC(=O)c1cnccn1`, the Potency was inconclusive: 25.1 µM [inhibitor, partial curve].
For `CC(=Nc1ccccc1O)c1sc2ccccc2c1O`, the Potency was inconclusive: 17.8 µM [inhibitor, partial curve].
With `Cc1cc(C(=O)N/N=C2\CC(=O)CC(C)(C)C2)n[nH]1` the Potency was inconclusive: 15.8 µM [inhibitor, partial curve].
`CC(C)(C)c1ccc(C(=O)NNc2cc(Cl)cc(Cl)c2)cc1` was tested, and the Potency was inconclusive: 11.2 µM [inhibitor, full curve].
For `COc1ccc(-n2c(O)c(/C=N/Nc3nc(C)cc(C)n3)c3ccccc3c2=O)cc1OC`, the Potency was inconclusive: 9.92 µM [inhibitor, partial curve].
`CN1CCN(C(=O)Nc2cccc(Cl)c2)c2cccnc21` was tested, and the Potency was active: 4.47 µM.
For `COc1ccc(S(=O)(=O)Nc2cc(C)c(O)c(S(=O)(=O)c3ccccc3)c2)cc1`, the Potency was inconclusive: 14.1 µM [inhibitor, partial curve].
For `COc1ccc(CC(=O)c2cc(OC)c(OC)cc2CC(=O)O)cc1OC`, the Potency was inconclusive: 11.2 µM [inhibitor, single point].
`CN1C(=O)c2cccc3c(N)ccc(c23)C1=O` was tested, and the Potency was “inactive”.
With `Cc1ccc(C(=O)Nc2cc(Cl)ccc2Oc2ccccc2)cc1[N+](=O)[O-]` the Potency was “inactive”.
In the case of `Cc1ccc(C)c(N2CCN(Cc3nnc(-c4ccccc4)o3)CC2)c1`, the Potency was inconclusive: 39.8 µM [inhibitor, partial curve].
For `CCOC(=O)C1(Cc2cccc(OC)c2)CCCN(Cc2cc(OC)c(O)c(OC)c2)C1` (centres undefined), the Potency was inconclusive: 44.7 µM [inhibitor, single point].
For `CC(=O)Oc1ccc(C(=O)OCC(=O)c2c(N)n(C)c(=O)n(C)c2=O)cc1OC(C)=O`, the Potency was inconclusive: 31.6 µM [inhibitor, single point].
In the case of `CCN(Cc1ccccc1)C(=O)CN1C(=O)COc2ccc(S(=O)(=O)N3CCCCCC3)cc21`, the Potency was inconclusive: 50.1 µM [inhibitor, partial curve].
With `Nc1ccccc1NC1CCCCC1` the Potency was inconclusive: 35.5 µM [inhibitor, single point].
With `CCCS(=O)(=O)Nc1cc2c(cc1NCc1ccccc1)n(C)c(=O)n2C` the Potency was inconclusive: 6.31 µM [inhibitor, full curve].
`CCOC(=O)C1CCN(C(=O)COC(=O)COc2ccccc2OC)CC1` was tested, and the Potency was inconclusive: 4.47 µM [inhibitor, full curve, poor fit].
In the case of `O=C(NCc1ccc(F)cc1)C1CCC(=O)N1C1CCCCC1` (centres undefined), the Potency was inconclusive: 3.55 µM [inhibitor, single point].
`O=C(O)/C=C/C(=O)N(Cc1ccc2c(c1)OCO2)C1CC(=O)N(CCc2ccccc2)C1=O` (centres undefined) was tested, and the Potency was inconclusive: 25.1 µM [activator, partial curve, poor fit].
In the case of `CCOc1ccc(N=C2C(=O)N(CN3CCOCC3)c3ccccc32)cc1`, the Potency was inconclusive: 31.6 µM [inhibitor, single point].
For `COc1ccc(C)cc1NCc1cccc(OC)c1OC`, the Potency was “inactive”.
`CC(=O)c1c(C)[nH]c(C(=O)Nc2cccc(S(=O)(=O)N(C)c3ccccc3)c2)c1C` was tested, and the Potency was inconclusive: 11.2 µM [inhibitor, single point].
In the case of `COc1cc(C(=O)NC(=S)Nc2ccccc2N2CCOCC2)cc(OC)c1OC`, the Potency was inconclusive: 50.1 µM [inhibitor, single point].
